# Source: PMC4336329 (PLoS ONE, 2015)
# About 14,000 (4.5%) of roughly 310,000 compounds showed an effect of 50% or more. Effects have a minus sign here. The list shows a part of the results.
# Biological target: human ether-à-go-go-related gene (hERG) potassium channel (human, UniProt Q12809)
# Experiment: primary screen, population patch clamp on CHO cells stably expressing hERG
# 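Note: peak tail current of the secondary pulse compared with the same well before compound.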
# Chain of human ether-à-go-go-related gene (hERG) potassium channel (Q12809 whole entry, looked up): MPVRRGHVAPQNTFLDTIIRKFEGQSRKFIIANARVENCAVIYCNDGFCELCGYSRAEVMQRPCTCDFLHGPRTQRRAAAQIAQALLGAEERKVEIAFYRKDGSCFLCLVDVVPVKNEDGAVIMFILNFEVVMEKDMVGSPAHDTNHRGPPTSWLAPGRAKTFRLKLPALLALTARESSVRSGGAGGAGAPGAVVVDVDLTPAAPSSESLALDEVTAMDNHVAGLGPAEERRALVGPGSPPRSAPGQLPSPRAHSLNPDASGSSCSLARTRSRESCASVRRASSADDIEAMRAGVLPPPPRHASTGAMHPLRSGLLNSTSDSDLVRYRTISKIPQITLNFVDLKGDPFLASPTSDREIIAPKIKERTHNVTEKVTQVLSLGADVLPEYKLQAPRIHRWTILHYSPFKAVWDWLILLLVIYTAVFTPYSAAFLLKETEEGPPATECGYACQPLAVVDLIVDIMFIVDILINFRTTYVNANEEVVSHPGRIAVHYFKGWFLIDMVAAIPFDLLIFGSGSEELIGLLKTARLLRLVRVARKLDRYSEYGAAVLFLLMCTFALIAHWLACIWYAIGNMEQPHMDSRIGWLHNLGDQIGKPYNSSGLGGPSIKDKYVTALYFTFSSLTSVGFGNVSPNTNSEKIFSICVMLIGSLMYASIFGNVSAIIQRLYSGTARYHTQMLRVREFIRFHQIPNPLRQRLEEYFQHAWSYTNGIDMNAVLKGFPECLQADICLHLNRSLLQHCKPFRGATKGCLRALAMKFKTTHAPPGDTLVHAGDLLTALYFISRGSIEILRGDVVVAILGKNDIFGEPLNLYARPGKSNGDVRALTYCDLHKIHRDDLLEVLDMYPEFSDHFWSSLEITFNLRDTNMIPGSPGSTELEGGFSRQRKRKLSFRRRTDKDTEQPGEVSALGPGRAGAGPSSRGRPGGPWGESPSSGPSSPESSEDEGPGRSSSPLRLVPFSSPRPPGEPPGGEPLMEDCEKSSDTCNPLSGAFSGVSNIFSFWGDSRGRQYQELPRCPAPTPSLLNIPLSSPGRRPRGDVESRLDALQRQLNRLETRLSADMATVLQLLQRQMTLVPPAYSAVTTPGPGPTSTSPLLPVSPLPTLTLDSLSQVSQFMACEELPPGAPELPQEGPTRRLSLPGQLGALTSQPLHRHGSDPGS
row,Compound,"hERG current change (%, negative = inhibition) at 10uM"
1,COc1ccc(NC(=O)c2ccc(C)cc2Cl)c([N+](=O)[O-])c1,27.6%
2,Cc1ccccc1C(=O)N1CCC(C(N)=O)CC1,14.8%
3,O=C(Cc1ccccc1)N/N=C/c1cc(Br)cc(Br)c1O,22.5%
4,O=C(NCCc1ccc(Cl)cc1)C1CCN(C(=O)N2CCOc3ccccc32)CC1,-43.1%
5,COc1ccccc1C(=O)C1CCCN(Cc2ccc(Oc3ncccn3)cc2)C1 (stereo not drawn),-40.6%
6,O=C(Nc1cccc(NC(=O)C2CC2)n1)C1CC1,-6.67%
7,O=[N+]([O-])c1ccc(O)c(/C=N/Nc2ccccc2[N+](=O)[O-])c1,9.81%
8,CC[C@H](C)[C@H](NC(=O)c1ccccc1)C(=O)Nc1ccc(S(=O)(=O)Nc2cc(C)nc(C)n2)cc1,19.2%
9,O=C(NCc1cccs1)c1cc(-c2ccccc2)nn1CC1CC(c2cccc([N+](=O)[O-])c2)=NO1 (stereo not drawn),-66.9%
10,COCCCNc1nc(SCc2ccccc2)nc2sc3c(c12)CCC3,30.8%
11,CCOc1ccccc1CNC(=O)CCCn1ccc2cc(S(=O)(=O)N3CCCC3)ccc21,-20.5%
12,COc1ccc(C2C(C(=O)Nc3ccccn3)=C(C)Nc3ncnn32)c(OC)c1 (stereo not drawn),2.9%
13,CCOC(=O)CC(NC(=O)Cc1ccccc1)c1ccccc1Cl (stereo not drawn),1.83%
14,Cn1cc(S(=O)(=O)N2CCCC2)cc1C(=O)NCc1ccc(F)cc1,-1.25%
15,Cc1nn2c(-c3cccc(NC(=O)CSc4nc5ccccc5o4)c3)nnc2c2ccccc12,-70.8%
16,Cc1ccc(C(N)=Nc2ccccc2)cc1,13.3%
17,COc1cc(CCC(=O)OCC(=O)NCc2ccc(Cl)cc2)cc(OC)c1OC,-4.41%
18,CCOC(=O)c1c(NC(=O)CN2CCN(C)CC2)sc(C(=O)Nc2ccccc2)c1C,-58.9%
19,O=C(O)C(=O)O.O=C(c1ccccc1)N1CCN(C2CCCCC2)CC1,-31.9%
20,COc1ccc(-c2nc3ccc([N+](=O)[O-])cc3o2)cc1,7.28%
21,O=C(NC1CCCC1)c1cc(-c2ccccc2)on1,-13%
22,Cc1cc(C(=O)Nc2ccc(S(=O)(=O)Nc3nccs3)cc2)c(C)o1,-4.57%
23,Cn1c(=O)c2c(ncn2CC(=O)Nc2ccc(Cl)cc2Cl)n(C)c1=O,-8.62%

row,Compound,"hERG current change (%, negative = inhibition) at 10uM"
1,Cc1cc(C)nc(Nc2ccc(Br)cc2C(=O)O)n1.Cl,23.4%
2,CCOC(=O)c1c(NC(=O)c2ccc(N3C(=O)[C@@H]4[C@H](C3=O)[C@H]3C=C[C@@H]4C3)cc2)sc2c1CCCC2,4.99%
3,Cc1cc(-c2sccc2C)nc(-n2cccc2)n1,-4.41%
4,CCOCCOC(=O)Cn1cnc2scc(-c3ccc(C)cc3)c2c1=O,5.15%
5,Cc1cccc(C)c1NC(=O)c1cc(S(=O)(=O)N2CCOCC2)cn1C,-3.25%
6,CC(=O)Oc1c(Cl)cc(N(C(C)=O)S(=O)(=O)c2ccccc2)c2ccccc12,3.92%
7,Cc1ccoc1C(=O)NCCNc1ccc(Cl)cc1[N+](=O)[O-],-30.5%
8,CC(C)NC(=S)N/N=C/c1ccc(C(C)(C)C)cc1,5.26%
9,Cc1ccc(Cl)cc1N1CCN(S(=O)(=O)c2cn(C)cn2)CC1,-22.4%
10,CCn1nc(NC(=O)COC)c2cc3cc(C)ccc3nc21,8.99%
11,O=C(CSc1nnc(Cc2ccccc2)n1-c1cccc(Cl)c1)NNC(=O)Cc1ccccc1,7.46%
12,COc1ccc(C(CNC(=O)c2cccc3cccnc23)N(C)C)cc1 (stereo not drawn),-7.67%
13,CCNC(=S)NNC(=O)c1cc(-c2cc(C)ccc2C)nc2ccccc12,9.95%
14,CC1=NN(C(N)=S)C(=O)C1N=Nc1ccccc1O (stereo not drawn),21.9%
15,CC(C)(CO)NC(=O)C12CC3CC(CC(Br)(C3)C1)C2,16.7%
16,CCN(CC)c1cc(-c2ccccc2)ncn1.Cl,-16.5%
17,COCCN(C(=O)c1ccc(OC2CCN(S(=O)(=O)N(C)C)CC2)cc1)C(C)C,8.93%
18,Cc1sc2nc(SCCO)n(-c3ccccc3)c(=O)c2c1C,11.5%
19,Cc1cc(C)n2nc(CC(=O)NNC(=O)COc3cccc(C)c3C)nc2n1,19.5%
20,CCOC(=O)c1cc(NC(=O)Nc2ccccc2Cl)c(C)nc1C,23.8%
21,Cc1cccc(-c2nc(CS(=O)CC(=O)N3CCN(C)CC3)c(C)o2)c1 (stereo not drawn),23.6%
22,CCN1CCN(c2cc(C)c3cc(NC(=S)N4CCOCC4)ccc3n2)CC1,-23.4%
23,Cc1ccc(S(=O)(=O)/N=C(/c2ccccc2)N(C)C)c(C)c1,12.7%

row,Compound,"hERG current change (%, negative = inhibition) at 10uM"
1,CCOc1ccc(S(N)(=O)=O)cc1-c1nc2c(C(C)(C)C)nn(C)c2c(=O)[nH]1,10.9%
2,COc1ccc(/C=C(\NC(=O)c2ccc(Cl)cc2)C(=O)NCCCN2CCOCC2)cc1OC,13.9%
3,N#CC1C(=O)NC(N2CCN(c3ccccc3)CC2)=NC12CCCCC2 (stereo not drawn),-9.96%
4,Cc1c(Br)ccc(NC(=O)Cn2nc(-c3cccs3)ccc2=O)c1C,30.8%
5,CN1CCN(C(=O)c2cccn(Cc3c(Cl)cccc3Cl)c2=O)CC1,4.24%
6,COc1cc(C=O)ccc1OCCSc1ccc(C)cc1,-3.13%
7,CCC(C(=O)Nc1ccccc1OC)n1c(C(=O)OC)cc2ccsc21 (stereo not drawn),-11.3%
8,COC(=O)C1=C(C)N(c2ccc(Cl)c(Cl)c2)C(=O)C1,-7.05%
9,CN(CCc1ccccn1)Cc1ccc(Cl)c(Cl)c1,-36.3%
10,CCCCCC(=O)N(CN1C(=O)CCC1=O)c1ccccc1,6.44%
11,S=C(NCc1ccccc1)NCC1COc2ccccc2O1 (stereo not drawn),-12%
12,CC1=C(C(=O)OC(C)C)C(c2cccc(F)c2)n2ncnc2N1 (stereo not drawn),-6.25%
13,CCCCc1ccc(NC(=O)Nc2cccnc2)cc1,20%
14,CC(=O)c1cccc(NC(=S)NC(=O)c2ccccc2Cl)c1,-0.116%
15,CN(C)S(=O)(=O)c1ccc2c(c1)nc1n2CCC1,10.9%
16,CCOC(=O)c1cccc(NC(=O)C2CCCO2)c1 (stereo not drawn),4.7%
17,Cc1nnc(NC(=O)C2CCN(c3nnnn3-c3ccccc3)CC2)s1,-16.2%
18,Cc1ccc(NC(=O)CCSc2ccccc2)c(C)c1,3.6%
19,Cc1cc(C(=O)NCCCOC(C)C)c2ccccc2n1,-7.22%
20,COCCNC(=O)CN1CCN(Cc2cccc(Cl)c2)C1=O,-6.53%
21,C=CCC1(CC=C)CCCN1C(=O)CC1C(=O)NCCN1Cc1cccc(OC)c1 (stereo not drawn),-2.86%
22,COc1ccc(CNC(=O)C2CCN(c3nc(-c4ccccc4)nc4c3CCC4)CC2)cc1,-19.9%
23,Cn1c(SCC(=O)Nc2cccc(C(=O)O)c2)nnc1-c1cc2cc(Br)ccc2o1,11.4%

row,Compound,"hERG current change (%, negative = inhibition) at 10uM"
1,CCN(c1ccccc1)S(=O)(=O)c1cnc[nH]1,-7.09%
2,COC(=O)c1sc(-c2cccs2)cc1N,13.1%
3,CC(C)CN(CC(C)C)c1ccc(C=C2C(=O)NC(=S)NC2=O)cc1[N+](=O)[O-],9.99%
4,COc1ccc(NC(=O)/C(=C\c2cccnc2)NC(=O)c2cccs2)cc1,-34.6%
5,COCc1cc(C)nc(OCC(=O)N/N=C/c2ccccc2O)c1C#N,20%
6,Clc1ccc(CN2CCCCCC2)cc1Cl,-7.66%
7,Nc1ccc2[nH]ncc2c1,-3.76%
8,CCOC(=O)N1CCN(S(=O)(=O)c2c(C)[nH]c(=O)[nH]c2=O)CC1,-17.6%
9,CC(=O)Nc1ccc(S(=O)(=O)NCc2ccc(C(=O)NCCN3CCCCCC3)cc2)cc1,-0.81%
10,C[C@H](NC(=O)Nc1cccc(C(F)(F)F)c1)C(=O)O,0.0629%
11,CC(C)Oc1ccc(CCc2nnc(SCC(=O)O)n2-c2ccccc2)cc1,11.5%
12,[Br-].c1ccc2c(C[n+]3csc4ccccc43)cccc2c1,9.3%
13,Cc1cccc(OCC(=O)NC(Cc2c[nH]c3ccccc23)C(=O)O)c1C (stereo not drawn),17%
14,CCN1C(=O)c2ccccc2S(=O)(=O)c2ccc(C(=O)NC(C)C)cc21,-2.53%
15,O=C(NN=C1CCCCCC1)c1c[nH]c2ccccc12,20.4%
16,COCCCC1CCN(Cc2nc(-c3ccccc3)no2)CC1,-28.3%
17,CCOC(=O)C1CCN(S(=O)(=O)c2ccc(C(C)(C)C)cc2)CC1,8.32%
18,NC(=S)n1[nH]c(-c2ccccc2)c(N=Nc2ccccc2C(=O)N2CCOCC2)c1=O,-29.3%
19,O=C(CC1C(=O)NCCN1Cc1ccccc1C(F)(F)F)NC1CCCCCC1 (stereo not drawn),11.3%
20,CCCC(C)C(=O)Nc1ccc(S(=O)(=O)Nc2nccs2)cc1 (stereo not drawn),18.3%
21,Cc1nnsc1-c1onc(C)c1C(=O)Nc1cc(Cl)cc(Cl)c1,16.5%
